# ± gives the standard deviation of the averaged measurements. Whole data set: some 2,900 compounds, median “IRF Lucia reporter activity, fold change vs agonist alone” near 0.9, cut for the highest 2% near 2.8. The list shows a part of the results.
# Tests used:
# [1] = tested on: RAW-Dual; assay: IRF Lucia reporter activity, fold change vs agonist alone; cytotoxicity flag (confluency mask): not cytotoxic; higher = enhanced IRF activity
# Method in brief: (§1)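 Supernatant from RAW-Dual macrophages was read after 20 hours for IRF by QuantiLuc luminescence and for NF-κB by QuantiBlue absorbance at 620 nm. The cells (50,000 cells/well in DMEM, 384-well plates, 37 °C, 5% CO2) had received 50 nL of library stock by pin tool and, 1 h later, a PRR agonist. Reporter activity is expressed relative to agonist-alone wells as fold change, and wells were flagged cytotoxic if IncuCyte confluency was under 70% of agonist controls in both mask sets.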
# [2] = tested on: RAW-Dual; assay: IRF Lucia reporter activity, fold change vs agonist alone; higher = enhanced IRF activity; conditions: agonist: MPLA (TLR4) […]
# Method in brief: as §1
# [3] = tested on: RAW-Dual; assay: IRF Lucia reporter activity, fold change vs agonist alone; cytotoxicity flag (confluency mask): cytotoxic (confluency <70% of control); higher = enhanced IRF activity
# Method in brief: as §1
# [4] = agonist: 3'3'-cGAMP (STING) 10 ug/mL
# [5] = library stock concentration (final ~1000-fold dilution): 10 mM, cytotoxicity flag (confluency mask): not cytotoxic
smiles,measurement,setting,value
CCCCc1oc2ccccc2c1C(=O)c1cc(I)c(OCCN(CC)CC)c(I)c1.Cl (library stock concentration (final ~1000-fold dilution): 10 mM),IRF Lucia reporter activity,[1]; [4],0.286
same,IRF Lucia reporter activity,[1]; agonist: LPS (TLR4) 0.1 ug/mL,1.28
Cc1nc2ccc(CN(C)c3ccc(C(=O)NC(CCC(=O)O)C(=O)O)s3)cc2c(=O)[nH]1 (configuration not stated),IRF Lucia reporter activity,[2]; [5],0.988
Cc1nc2ccc(CN(C)c3ccc(C(=O)NC(CCC(=O)O)C(=O)O)s3)cc2c(=O)[nH]1 (configuration not stated) (library stock concentration (final ~1000-fold dilution): 10 mM),IRF Lucia reporter activity,[1]; [4],0.842
same,IRF Lucia reporter activity,[1]; agonist: LPS (TLR4) 0.1 ug/mL,1.04
COC(=O)NC(C(=O)N1CCCC1c1ncc(-c2ccc(-c3ccc(-c4cnc(C5CCCN5C(=O)C(NC(=O)OC)C(C)C)[nH]4)cc3)cc2)[nH]1)C(C)C (configuration not stated) (library stock concentration (final ~1000-fold dilution): 10 mM),IRF Lucia reporter activity,[1]; [4],1.04
same,IRF Lucia reporter activity,[1]; agonist: LPS (TLR4) 0.1 ug/mL,4.15
COC(=O)NC(C(=O)N1CCCC1c1ncc(-c2ccc(-c3ccc(-c4cnc(C5CCCN5C(=O)C(NC(=O)OC)C(C)C)[nH]4)cc3)cc2)[nH]1)C(C)C (configuration not stated),IRF Lucia reporter activity,[2]; [5],3.26
COC(=O)C12CCC(C)(C)CC1C1C(=O)C=C3C4(C)C=C(C#N)C(=O)C(C)(C)C4CCC3(C)C1(C)CC2 (configuration not stated) (library stock concentration (final ~1000-fold dilution): 10 mM),IRF Lucia reporter activity,[3]; [4],0.0165 ± 0.0022
same,IRF Lucia reporter activity,[3]; agonist: LPS (TLR4) 0.1 ug/mL,0.0174 ± 0.0077
CN(C)CCCC1(c2ccc(F)cc2)OCc2cc(C#N)ccc21.O=C(O)C(=O)O (configuration not stated) (library stock concentration (final ~1000-fold dilution): 10 mM),IRF Lucia reporter activity,[1]; [4],1.08
same,IRF Lucia reporter activity,[1]; agonist: LPS (TLR4) 0.1 ug/mL,1.32
CN(C)CCCC1(c2ccc(F)cc2)OCc2cc(C#N)ccc21.O=C(O)C(=O)O (configuration not stated),IRF Lucia reporter activity,[2]; [5],1.3
O=C(O)c1ccc2nc(-c3cc(Cl)cc(Cl)c3)oc2c1,IRF Lucia reporter activity,[2]; [5],1.11
O=C(O)c1ccc2nc(-c3cc(Cl)cc(Cl)c3)oc2c1 (library stock concentration (final ~1000-fold dilution): 10 mM),IRF Lucia reporter activity,[1]; [4],1.05
same,IRF Lucia reporter activity,[1]; agonist: LPS (TLR4) 0.1 ug/mL,0.734
O=C(O)CC(CC(=O)O)C(=O)O,IRF Lucia reporter activity,[2]; [5],0.993
O=C(O)CC(CC(=O)O)C(=O)O (library stock concentration (final ~1000-fold dilution): 10 mM),IRF Lucia reporter activity,[1]; [4],1.04
same,IRF Lucia reporter activity,[1]; agonist: LPS (TLR4) 0.1 ug/mL,0.675
CNC(=O)c1cc(Oc2ccc(NC(=O)Nc3ccc(Cl)c(C(F)(F)F)c3)cc2)ccn1.Cc1ccc(S(=O)(=O)O)cc1,IRF Lucia reporter activity,"[2]; library stock concentration (final ~1000-fold dilution): 10 mM, cytotoxicity flag (confluency mask): cytotoxic (confluency <70% of control)",0.577
CNC(=O)c1cc(Oc2ccc(NC(=O)Nc3ccc(Cl)c(C(F)(F)F)c3)cc2)ccn1.Cc1ccc(S(=O)(=O)O)cc1 (library stock concentration (final ~1000-fold dilution): 10 mM),IRF Lucia reporter activity,[3]; [4],0.079
same,IRF Lucia reporter activity,[3]; agonist: LPS (TLR4) 0.1 ug/mL,0.344
Nc1ccc(-c2cccc(C(=O)Nc3cnc4nc(N5CCOCC5)oc4c3)n2)cn1 (library stock concentration (final ~1000-fold dilution): 10 mM),IRF Lucia reporter activity,[1]; [4],0.717
same,IRF Lucia reporter activity,[1]; agonist: LPS (TLR4) 0.1 ug/mL,1.48
CCn1c(-c2nonc2N)nc2c(C#CC(C)(C)O)ncc(OCC3CCCNC3)c21 (configuration not stated) (library stock concentration (final ~1000-fold dilution): 10 mM),IRF Lucia reporter activity,[1]; [4],0.017
same,IRF Lucia reporter activity,[1]; agonist: LPS (TLR4) 0.1 ug/mL,0.0522
CCn1c(-c2nonc2N)nc2c(C#CC(C)(C)O)ncc(OCC3CCCNC3)c21 (configuration not stated),IRF Lucia reporter activity,[2]; [5],0.0565
Cl.c1ccc2c(-c3cnn4cc(-c5ccc(N6CCNCC6)cc5)cnc34)ccnc2c1 (library stock concentration (final ~1000-fold dilution): 10 mM water),IRF Lucia reporter activity,[1]; [4],0.607
same,IRF Lucia reporter activity,[1]; agonist: LPS (TLR4) 0.1 ug/mL,0.687
Cl.c1ccc2c(-c3cnn4cc(-c5ccc(N6CCNCC6)cc5)cnc34)ccnc2c1,IRF Lucia reporter activity,"[2]; library stock concentration (final ~1000-fold dilution): 10 mM water, cytotoxicity flag (confluency mask): not cytotoxic",1.21
O=[N+]([O-])c1ccc(Nc2ccccc2-c2ccccc2)c2nonc12 (library stock concentration (final ~1000-fold dilution): 10 mM),IRF Lucia reporter activity,[1]; [4],0.785
same,IRF Lucia reporter activity,[1]; agonist: LPS (TLR4) 0.1 ug/mL,0.968
C[N+](C)(C)CC(O)CC(=O)O (configuration not stated) (library stock concentration (final ~1000-fold dilution): 10 mM),IRF Lucia reporter activity,[1]; [4],0.854
same,IRF Lucia reporter activity,[1]; agonist: LPS (TLR4) 0.1 ug/mL,0.93
COc1nc2ccc(Br)cc2cc1C(c1ccccc1)C(O)(CCN(C)C)c1cccc2ccccc12.O=C(O)/C=C/C(=O)O (configuration not stated) (library stock concentration (final ~1000-fold dilution): 10 mM),IRF Lucia reporter activity,[1]; [4],0.888
same,IRF Lucia reporter activity,[1]; agonist: LPS (TLR4) 0.1 ug/mL,0.812
COc1nc2ccc(Br)cc2cc1C(c1ccccc1)C(O)(CCN(C)C)c1cccc2ccccc12.O=C(O)/C=C/C(=O)O (configuration not stated),IRF Lucia reporter activity,[2]; [5],0.751
CC(N)C12CC3CC(CC(C3)C1)C2.Cl (configuration not stated),IRF Lucia reporter activity,[2]; [5],0.976
CC(N)C12CC3CC(CC(C3)C1)C2.Cl (configuration not stated) (library stock concentration (final ~1000-fold dilution): 10 mM),IRF Lucia reporter activity,[1]; [4],1.14
same,IRF Lucia reporter activity,[1]; agonist: LPS (TLR4) 0.1 ug/mL,0.892
O=[N+]([O-])c1ccc(S(=O)(=O)N2CCN(c3ccnc4cc(Cl)ccc34)CC2)c([N+](=O)[O-])c1 (library stock concentration (final ~1000-fold dilution): 10 mM),IRF Lucia reporter activity,[3]; [4],0.0178
same,IRF Lucia reporter activity,[3]; agonist: LPS (TLR4) 0.1 ug/mL,0.0517
